Data as given in the supplement of paper PMC11741623.
This is one part of the list. Interaction screen of human proteins with wild-type SARS-CoV-2 proteins by split-DHFR complementation in yeast, 1 µg/mL methotrexate. Value = fitness of the pair (three or more lineages) minus that of the viral protein without a human partner, on a scale set by negative (0) and fused positive (1) controls, mean of up to three cultures; higher = more likely to interact. Active = false discovery rate below 0.05 (one-sided t-test) in at least one culture. Nearly all pairs are not hits, and differences among them are mostly noise (correlation between cultures about 0.3); most hits were seen in one culture only. Human sequences are the Swiss-Prot entries looked up by gene name; the clone may be another isoform. NSP2 values were corrected by the authors for a growth advantage. Listed are human proteins with a hit and a random twelfth of the others.

Tests used:
Assay in all cases: yeast fitness gain over the viral ORF with no human partner (scaled fitness); higher = more likely to interact
SARS-CoV-2 M = biological target: SARS-CoV-2 M
Procedure: (§1)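 Split mouse DHFR complementation in pooled diploid yeast: human ORFeome clones carry one fragment and viral ORFs the other; barcoded lineages compete in 1 µg/mL methotrexate and fitness is read by barcode sequencing in up to three cultures.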

SARS-CoV-2 N = biological target: SARS-CoV-2 N
Procedure: as §1

SARS-CoV-2 NSP1 = biological target: SARS-CoV-2 NSP1
Procedure: as §1

SARS-CoV-2 NSP10 = biological target: SARS-CoV-2 NSP10
Procedure: as §1

SARS-CoV-2 NSP12 = biological target: SARS-CoV-2 NSP12
Procedure: as §1

SARS-CoV-2 NSP13 = biological target: SARS-CoV-2 NSP13
Procedure: as §1

SARS-CoV-2 NSP15 = biological target: SARS-CoV-2 NSP15
Procedure: as §1

SARS-CoV-2 NSP16 = biological target: SARS-CoV-2 NSP16
Procedure: as §1

SARS-CoV-2 NSP2 = biological target: SARS-CoV-2 NSP2
Procedure: as §1

SARS-CoV-2 NSP5 = biological target: SARS-CoV-2 NSP5
Procedure: as §1

SARS-CoV-2 NSP6 = biological target: SARS-CoV-2 NSP6
Procedure: as §1

SARS-CoV-2 NSP7 = biological target: SARS-CoV-2 NSP7
Procedure: as §1

SARS-CoV-2 NSP8 = biological target: SARS-CoV-2 NSP8
Procedure: as §1

SARS-CoV-2 NSP9 = biological target: SARS-CoV-2 NSP9
Procedure: as §1

SARS-CoV-2 ORF10 = biological target: SARS-CoV-2 ORF10
Procedure: as §1

SARS-CoV-2 ORF3A = biological target: SARS-CoV-2 ORF3A
Procedure: as §1

SARS-CoV-2 ORF3B = biological target: SARS-CoV-2 ORF3B
Procedure: as §1

SARS-CoV-2 ORF6 = biological target: SARS-CoV-2 ORF6
Procedure: as §1

SARS-CoV-2 ORF7A = biological target: SARS-CoV-2 ORF7A
Procedure: as §1

SARS-CoV-2 ORF7B = biological target: SARS-CoV-2 ORF7B
Procedure: as §1

SARS-CoV-2 ORF8 = biological target: SARS-CoV-2 ORF8
Procedure: as §1

SARS-CoV-2 ORF9B = biological target: SARS-CoV-2 ORF9B
Procedure: as §1

[1] = biological target: SARS-CoV-2 ORF9Bwu (the 73-codon ORF)
Procedure: as §1

SARS-CoV-2 S = biological target: SARS-CoV-2 S
Procedure: as §1

SARS-CoV-2 NSP14 = biological target: SARS-CoV-2 NSP14
Procedure: as §1

SARS-CoV-2 NSP4 = biological target: SARS-CoV-2 NSP4
Procedure: as §1

Measured: yeast fitness gain

B1: AMBP, P02760 (protein)
chain: MRSLGALLLLLSACLAVSAGPVPTPPDNIQVQENFNISRIYGKWYNLAIGSTCPWLKKIMDRMTVSTLVLGEGATEAEISMTSTRWRKGVCEETSGAYEKTDTDGKFLYHKSKWNITMESYVVHTNYDEYAIFLTKKFSRHHGPTITAKLYGRAPQLRETLLQDFRVVAQGVGIPEDSIFTMADRGECVPGEQEPEPILIPRVRRAVLPQEEEGSGGGQLVTEVTKKEDSCQLGYSAGPCMGMTSRYFYNGTSMACETFQYGGCMGNGNNFVTEKECLQTCRTVAACNLPIVRGPCRAFIQLWAFDAVKGKCVLFPYGGCQGNGNKFYSEKECREYCGVPGDGDEELLRFSN
inactive: SARS-CoV-2 M 0.0632 | SARS-CoV-2 N -0.163 | SARS-CoV-2 NSP1 = -0.0908 | SARS-CoV-2 NSP10 = -0.142 | SARS-CoV-2 NSP12 = -0.0325 | SARS-CoV-2 NSP13 = 0.00907 | SARS-CoV-2 NSP15 = -0.00422 | SARS-CoV-2 NSP16 = 0.093 | SARS-CoV-2 NSP2 = -0.108 | SARS-CoV-2 NSP5 = -0.0338 | SARS-CoV-2 NSP6 = -0.0924 | SARS-CoV-2 NSP7 = 0.0208 | SARS-CoV-2 NSP8 = 0.00916 | SARS-CoV-2 NSP9 = 0.0679 | SARS-CoV-2 ORF10 = -0.0263 | SARS-CoV-2 ORF3A -0.0764 | SARS-CoV-2 ORF3B 0.0243 | SARS-CoV-2 ORF6 = -0.00802 | SARS-CoV-2 ORF7A 0.0249 | SARS-CoV-2 ORF7B -0.14 | SARS-CoV-2 ORF8 = 0.028 | SARS-CoV-2 ORF9B 0.0589 | [1] -0.024 | SARS-CoV-2 S 0.0733

B2: ACAP3, Q96P50 (protein)
chain: MTVEFEECVKDSPRFRATIDEVETDVVEIEAKLDKLVKLCSGMVEAGKAYVSTSRLFVSGVRDLSQQCQGDTVISECLQRFADSLQEVVNYHMILFDQAQRSVRQQLQSFVKEDVRKFKETKKQFDKVREDLELSLVRNAQAPRHRPHEVEEATGALTLTRKCFRHLALDYVLQINVLQAKKKFEILDSMLSFMHAQSSFFQQGYSLLHQLDPYMKKLAAELDQLVIDSAVEKREMERKHAAIQQRTLLQDFSYDESKVEFDVDAPSGVVMEGYLFKRASNAFKTWNRRWFSIQNSQLVYQKKLKDALTVVVDDLRLCSVKPCEDIERRFCFEVLSPTKSCMLQADSEKLRQAWVQAVQASIASAYRESPDSCYSERLDRTASPSTSSIDSATDTRERGVKGESVLQRVQSVAGNSQCGDCGQPDPRWASINLGVLLCIECSGIHRSLGVHCSKVRSLTLDSWEPELLKLMCELGNSAVNQIYEAQCEGAGSRKPTASSSRQDKEAWIKDKYVEKKFLRKAPMAPALEAPRRWRVQKCLRPHSSPRAPTARRKVRLEPVLPCVAALSSVGTLDRKFRRDSLFCPDELDSLFSYFDAGAAGAGPRSLSSDSGLGGSSDGSSDVLAFGSGSVVDSVTEEEGAESEESSGEADGDTEAEAWGLADVRELHPGLLAHRAARARDLPALAAALAHGAEVNWADAEDEGKTPLVQAVLGGSLIVCEFLLQNGADVNQRDSRGRAPLHHATLLGRTGQVCLFLKRGADQHALDQEQRDPLAIAVQAANADIVTLLRLARMAEEMREAEAAPGPPGALAGSPTELQFRRCIQEFISLHLEES
inactive: SARS-CoV-2 M -0.00177 | SARS-CoV-2 NSP1 = -0.00423 | SARS-CoV-2 NSP12 = -0.039 | SARS-CoV-2 NSP13 = 0.0174 | SARS-CoV-2 NSP14 = -0.0731 | SARS-CoV-2 NSP2 = -0.269 | SARS-CoV-2 NSP4 = 0.00893 | SARS-CoV-2 NSP6 = -0.00552 | SARS-CoV-2 NSP8 = 0.0351 | SARS-CoV-2 ORF10 = 0.0541 | SARS-CoV-2 ORF3A 0.0658 | SARS-CoV-2 ORF3B 0.0862 | SARS-CoV-2 ORF6 = -0.0759 | SARS-CoV-2 ORF7A -0.0813 | SARS-CoV-2 ORF7B -0.00329 | SARS-CoV-2 ORF8 = -0.027 | SARS-CoV-2 ORF9B 0.13 | [1] -0.0221 | SARS-CoV-2 S 0.0375

B3: KIR3DL1, P43629 (protein)
chain: MSLMVVSMACVGLFLVQRAGPHMGGQDKPFLSAWPSAVVPRGGHVTLRCHYRHRFNNFMLYKEDRIHIPIFHGRIFQESFNMSPVTTAHAGNYTCRGSHPHSPTGWSAPSNPVVIMVTGNHRKPSLLAHPGPLVKSGERVILQCWSDIMFEHFFLHKEGISKDPSRLVGQIHDGVSKANFSIGPMMLALAGTYRCYGSVTHTPYQLSAPSDPLDIVVTGPYEKPSLSAQPGPKVQAGESVTLSCSSRSSYDMYHLSREGGAHERRLPAVRKVNRTFQADFPLGPATHGGTYRCFGSFRHSPYEWSDPSDPLLVSVTGNPSSSWPSPTEPSSKSGNPRHLHILIGTSVVIILFILLLFFLLHLWCSNKKNAAVMDQEPAGNRTANSEDSDEQDPEEVTYAQLDHCVFTQRKITRPSQRPKTPPTDTILYTELPNAKPRSKVVSCP
inactive: SARS-CoV-2 M -0.0186 | SARS-CoV-2 NSP1 = -0.256 | SARS-CoV-2 NSP10 = -0.195 | SARS-CoV-2 NSP12 = -0.0806 | SARS-CoV-2 NSP13 = -0.00503 | SARS-CoV-2 NSP2 = 0.0276 | SARS-CoV-2 NSP4 = -0.416 | SARS-CoV-2 NSP5 = 0.0543 | SARS-CoV-2 NSP6 = -0.0456 | SARS-CoV-2 ORF6 = 0.0451 | SARS-CoV-2 ORF7B -0.0564 | SARS-CoV-2 ORF8 = 0.0385 | SARS-CoV-2 ORF9B -0.0644

B4: ABHD14A, Q9BUJ0 (protein)
chain: MVGALCGCWFRLGGARPLIPLGPTVVQTSMSRSQVALLGLSLLLMLLLYVGLPGPPEQTSCLWGDPNVTVLAGLTPGNSPIFYREVLPLNQAHRVEVVLLHGKAFNSHTWEQLGTLQLLSQRGYRAVALDLPGFGNSAPSKEASTEAGRAALLERALRDLEVQNAVLVSPSLSGHYALPFLMRGHHQLHGFVPIAPTSTQNYTQEQFWAVKTPTLILYGELDHILARESLRQLRHLPNHSVVKLRNAGHACYLHKPQDFHLVLLAFLDHLP
inactive: SARS-CoV-2 M 0.0302 | SARS-CoV-2 NSP1 = 0.131 | SARS-CoV-2 NSP10 = -0.0077 | SARS-CoV-2 NSP12 = 0.0267 | SARS-CoV-2 NSP13 = -0.0294 | SARS-CoV-2 NSP2 = -0.163 | SARS-CoV-2 NSP4 = -0.0447 | SARS-CoV-2 NSP5 = -0.0304 | SARS-CoV-2 NSP6 = 0.0237 | SARS-CoV-2 NSP7 = 0.073 | SARS-CoV-2 NSP8 = 0.00829 | SARS-CoV-2 ORF10 = -0.115 | SARS-CoV-2 ORF3A 0.0241 | SARS-CoV-2 ORF3B 0.0305 | SARS-CoV-2 ORF6 = 0.0234 | SARS-CoV-2 ORF7A -0.0206 | SARS-CoV-2 ORF7B -0.0951 | SARS-CoV-2 ORF8 = -0.0453 | SARS-CoV-2 ORF9B -0.0127 | [1] -0.0748 | SARS-CoV-2 S -0.048
